The other results are listed elsewhere or left out.
Each compound was assayed on HSkMC (human skeletal muscle cells) (assay: cytotoxicity call (relative viability < 0.9)). Settings: 10 µM.

| SMILES | cytotoxicity call |
| --- | --- |
| C[C@@H]1CN([C@@H](C)CO)C(=O)c2cc(NC(=O)Cn3cnnn3)ccc2O[C@H]1CN(C)S(=O)(=O)c1cn(C)cn1 | inactive |
| Cc1noc(C)c1NC(=O)Nc1ccc2c(c1)C(=O)N([C@@H](C)CO)C[C@H](C)[C@@H](CN(C)C(=O)Nc1ccc(C(F)(F)F)cc1)O2 | inactive |
| C[C@H](CO)N1C[C@H](C)[C@H](CN(C)C(=O)Nc2cccc3ccccc23)Oc2ccc(NS(=O)(=O)c3ccc(F)cc3)cc2C1=O | inactive |
| C[C@@H]1CCCCO[C@@H](CN(C)C(=O)Cc2ccccc2)[C@H](C)CN([C@H](C)CO)C(=O)c2cc(NS(=O)(=O)c3ccc(F)cc3)ccc2O1 | inactive |
| C[C@@H]1CN([C@@H](C)CO)C(=O)c2cccc(NC(=O)C3CCOCC3)c2O[C@@H]1CN(C)Cc1ccc(-c2ccccc2)cc1 | inactive |
| N[C@@H]1CCCN(c2c(/C=C3\SC(=O)NC3=O)cccc2-c2ccccc2)C1 | inactive |
| Cc1noc(C)c1NC(=O)N(C)C[C@H]1Oc2c(NC(=O)c3cnccn3)cccc2C(=O)N([C@H](C)CO)C[C@@H]1C | inactive |
| C[C@@H]1CN([C@H](C)CO)C(=O)c2cc(NC(=O)Cc3ccccc3)ccc2O[C@@H](C)CCCCO[C@H]1CN(C)C(=O)NC1CCCCC1 | inactive |
| C[C@H]1CCCCO[C@H](CN(C)C(=O)NC2CCCCC2)[C@@H](C)CN([C@@H](C)CO)C(=O)c2cc(NC(=O)c3ccccc3)ccc2O1 | inactive |
| O=C(C[C@H]1C[C@@H]2c3cc(NS(=O)(=O)c4ccc(F)cc4)ccc3O[C@@H]2[C@@H](CO)O1)NC1CCCC1 | inactive |
| C[C@H](NC(=O)C[C@@H]1CC[C@@H](NC(=O)CN2CCOCC2)[C@H](CO)O1)c1ccccc1 | inactive |
| O=c1[nH]c2ccsc2c(=O)n1CCO | inactive |
| Cc1ccc(S(=O)(=O)Nc2ccc3c(c2)CC(=O)N([C@H](C)CO)C[C@H](C)[C@@H](CN(C)Cc2ccncc2)O3)cc1 | inactive |
| C[C@H]1CN([C@@H](C)CO)C(=O)CCCn2cc(nn2)CO[C@@H]1CN(C)S(=O)(=O)c1ccccc1C#N | inactive |
| NC(=O)CSc1nnc(Cc2cc(=O)[nH]c(=O)[nH]2)n1-c1ccccc1 | inactive |
| COC1OC2OC3(C)CCC4C(C)CCC(C1C)C24OO3 (stereo not given) | inactive |
| C[C@H](CO)N1C[C@H](C)[C@H](CN(C)S(=O)(=O)c2cn(C)cn2)Oc2ccc(N(C)C)cc2CC1=O | inactive |
| COC1=CC(=O)CC(C)C12Oc1c(Cl)c(OC)cc(OC)c1C2=O (stereo not given) | inactive |
| Cn1cc(N2C[C@]3(COCCN(C(=O)C4(C#N)CC4)C3)OCC2=O)cn1 | inactive |
| Cc1noc(C)c1S(=O)(=O)Nc1ccc2c(c1)C(=O)N([C@@H](C)CO)C[C@H](C)[C@H](CN(C)S(=O)(=O)c1ccc(Cl)cc1)O2 | inactive |

| SMILES | cytotoxicity call |
| --- | --- |
| Cc1ccc(S(=O)(=O)Nc2ccc3c(c2)C(=O)N([C@@H](C)CO)C[C@@H](C)[C@@H](CN(C)C(=O)Nc2cccc4ccccc24)O3)cc1 | inactive |
| O=C(O)c1cccnc1C(=O)O | inactive |
| Cc1cccc[n+]1C | inactive |
| C[C@H]1[C@H](NC(=O)/C(=N\OC(C)(C)C(=O)O)c2csc(N)n2)C(=O)N1S(=O)(=O)O | inactive |
| Cc1noc(C)c1S(=O)(=O)Nc1ccc2c(c1)CC(=O)N([C@@H](C)CO)C[C@@H](C)[C@H](CN(C)Cc1ccc(C(=O)O)cc1)O2 | inactive |
| C[C@@H]1CN([C@H](C)CO)C(=O)c2cccc(NS(=O)(=O)c3ccc(Cl)cc3)c2O[C@@H]1CN(C)S(C)(=O)=O | inactive |
| COc1cccc(NC(=O)C[C@H]2CC[C@H]3[C@H](COc4ccc(NC(=O)C5CCOCC5)cc4C(=O)N3C)O2)c1 | inactive |
| C[C@@H]1CN([C@H](C)CO)C(=O)c2cc(NC(=O)NC3CCCCC3)ccc2O[C@@H]1CN(C)Cc1ccc(Oc2ccccc2)cc1 | inactive |
| Cc1noc(C)c1S(=O)(=O)Nc1ccc2c(c1)C(=O)N([C@@H](C)CO)C[C@@H](C)[C@@H](CN(C)S(C)(=O)=O)O2 | inactive |
| C=C1C(=O)C(O)[C@@H]2O[C@@H]2C1=O (stereo not given in full) | inactive |
| C[C@@H]1CN([C@@H](C)CO)C(=O)c2cc(NS(=O)(=O)c3ccc(F)cc3)ccc2O[C@@H](C)CCCCO[C@H]1CN(C)C(=O)Nc1ccccc1 | inactive |
| C[C@H]1CN([C@@H](C)CO)C(=O)Cc2cc(NS(=O)(=O)c3ccccc3)ccc2O[C@H]1CN(C)S(=O)(=O)c1cccs1 | inactive |
| COCCNC(=O)C[C@H]1C[C@@H]2c3cc(NS(C)(=O)=O)ccc3O[C@@H]2[C@@H](CO)O1 | inactive |
| Cc1ccc(OC(=O)N(C)C[C@@H]2OCc3ccccc3-c3ccccc3C(=O)N([C@@H](C)CO)C[C@@H]2C)cc1 | inactive |
| CN(C)CC(=O)N[C@@H]1C=C[C@H](CC(=O)NCCN2CCCCC2)O[C@H]1CO | inactive |
| C[C@@H]1CN([C@H](C)CO)C(=O)c2cc(NC(=O)CCN3CCOCC3)ccc2O[C@@H]1CN(C)Cc1ccc2c(c1)OCO2 | inactive |
| CO[C@H]1O[C@H](CO)[C@@H](OC(=O)Nc2cccc(F)c2)[C@H](OC(=O)Nc2ccccc2-c2ccccc2)[C@@H]1OC(=O)Nc1ccccc1-c1ccccc1 | active |
| CC(C)CCCC(C)N (stereo not given) | inactive |
| C[C@@H]1CN([C@H](C)CO)C(=O)c2cc(NS(=O)(=O)c3ccccc3)ccc2O[C@@H]1CN(C)Cc1ccncc1 | inactive |
| NCCCS(=O)(=O)O | inactive |

From the antibiotic and cytotoxicity screens of Wong et al. (2023)
